According to the supplement of paper PMC3334620:
In all, about 33,000 sequences were measured (“E-score (-0.5 to 0.5)”: median about -0.011, highest 2% from about 0.28 on). This is one part of the list.

Target: T1, Gcr1 (UniProt P07261)
T1 sequence: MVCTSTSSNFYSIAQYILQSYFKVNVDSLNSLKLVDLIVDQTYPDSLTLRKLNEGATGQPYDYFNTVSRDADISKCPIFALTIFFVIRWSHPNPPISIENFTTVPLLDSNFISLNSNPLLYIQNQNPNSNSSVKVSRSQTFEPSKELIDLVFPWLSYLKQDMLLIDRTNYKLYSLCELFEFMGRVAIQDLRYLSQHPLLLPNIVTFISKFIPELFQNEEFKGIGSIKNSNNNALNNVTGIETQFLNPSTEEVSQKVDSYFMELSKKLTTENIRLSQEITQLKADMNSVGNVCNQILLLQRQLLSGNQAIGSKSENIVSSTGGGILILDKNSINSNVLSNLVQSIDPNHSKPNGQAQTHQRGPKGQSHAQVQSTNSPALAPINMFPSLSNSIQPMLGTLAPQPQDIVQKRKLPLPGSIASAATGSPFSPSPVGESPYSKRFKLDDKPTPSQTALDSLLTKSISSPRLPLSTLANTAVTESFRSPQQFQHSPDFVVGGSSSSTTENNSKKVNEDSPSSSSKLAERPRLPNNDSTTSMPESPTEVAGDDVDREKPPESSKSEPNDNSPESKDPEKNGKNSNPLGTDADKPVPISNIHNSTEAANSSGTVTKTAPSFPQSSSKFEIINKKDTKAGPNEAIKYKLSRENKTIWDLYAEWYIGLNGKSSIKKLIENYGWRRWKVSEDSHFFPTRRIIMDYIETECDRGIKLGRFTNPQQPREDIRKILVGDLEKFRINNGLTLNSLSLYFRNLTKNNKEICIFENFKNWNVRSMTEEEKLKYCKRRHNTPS
Experiment: PBM E-score (8-mer binding enrichment) (E-score (-0.5 to 0.5)); higher = stronger / more preferred TF binding; most listed sequences are background and not binding sites
Conditions: protein concentration: 100 nM; construct: GST-full length
Summary of the method: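 E-scores (a modified Wilcoxon-Mann-Whitney statistic) were assigned by the Universal PBM Analysis Suite to every ungapped eight-base word pooled with its reverse complement. The input came from universal all-10-mer Agilent arrays made double-stranded by primer extension and probed with GST-tagged yeast transcription factors at about 100-200 nM. Fluorescent anti-GST detected bound protein, and masliner normalised the scans.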

Sequence	PBM E-score
CGTAGTGA	-0.043
AGATAAAT	-0.077
GACACCAC	0.169
GTTTCAAA	0.0493
AGGAGGGA	-0.139
AGGTCGCA	-0.0983
CAGCGATC	-0.151
TGATAACA	-0.147
GCAGCTCA	0.108
GCAATCTA	-0.11
ACTGCGTG	0.153
TAAAGAGA	0.0201
CAGGCGGA	0.0323
GTCACTCA	0.0683
ATTTGCAA	0.155
AGTTCGGA	0.0698
TGTCTTAA	-0.0143
ATCACTAC	0.0639
AACACCGC	0.0497
AAAATCAA	0.0187
CCACCTGA	0.088
ACGGCCTG	-0.127
GGAACGCC	0.152
ACGGGAAG	0.112
GTTCCTTA	0.0517

Sequence	PBM E-score
CAGAGTAA	-0.0736
CAGAGATA	0.0172
CTGGCTCC	0.26
AGAGCCTC	-0.147
CGGCTACC	0.0369
AATGCGTC	0.0832
GCTAGTAC	-0.0272
CCAGGAAG	0.166
CCTCATAG	-0.119
AACTGTAT	-0.0922
ACTAGCCC	0.0558
AGAGGCAG	0.0897
AGCACGTG	-0.196
AGGGAGTG	-0.121
AATAGTGA	0.0209
TCATCGCA	-0.0968
AGAATGGC	-0.0738
ACGGTAAG	-0.0708
GCGGGTAC	0.00167
ACAACACA	-0.0268
CAACCGAA	0.067
AACGAAAT	0.102
AAGGGACC	-0.286
TATCCTCA	-0.0338
AGGCAACT	0.0157

Sequence	PBM E-score
AAGAAAGC	-0.148
AACTCCGT	0.0358
AATGGGGG	-0.0754
AGTTCGAT	-0.00863
ACAGCCAT	-0.277
GAGAATAA	-0.0609
CGCAGGTC	-0.104
CCCCGTGA	-0.0435
AAGAAATC	0.0702
AACGGGCG	-0.0222
AATACATA	0.176
GGTTACAA	0.0617
AACCTGCA	-0.0327
AAAGCACA	-0.0802
GGATAAAC	-0.102
AAACTAGC	0.0289
AGTGCCAA	0.0317
GGATGGCC	-0.306
CTGAGACC	0.00107
ACTGGCAC	0.0733
GATCTCAA	-0.152
AGCGAGTA	0.0974
ATACCTAA	0.14
ATACGCCG	0.24
TATAAATA	0.131

Sequence	PBM E-score
GGGTTTAC	-0.144
CATTAGAC	0.0983
AGAGCGAA	-0.308
GCTCATGA	-0.153
GAGGGGTA	0.00675
CGTTCTTA	0.13
CAATGCCA	0.031
ACATCGCC	-0.0573
AACCATTC	-0.0583
CAAATAAC	0.132
AATCAACT	-0.0954
TAGAAGAA	0.352
CGCCATAC	0.127
AGTTTTAT	0.112
CCGAAGTA	0.0569
AAAGGACG	0.025
AAAAATTG	0.116
CTGGAGAC	0.164
TGACTGCA	-0.205
GGGGCGAC	0.118
CGTACGCA	-0.176
TCCTGCAA	-0.0959
TGGCATAA	-0.0219
CGACATAG	0.00154
TGGCCTAA	-0.279

Sequence	PBM E-score
AACCGTCT	-0.0995
ATCATCCA	0.0347
CATGAGAC	-0.288
CTCTGAAG	-0.125
CAAGACCG	-0.196
ACTGCCTC	-0.0123
GGCGCATA	-0.0105
ATATAAAG	0.114
TGCATCAA	0.129
GTGAGCTA	-0.175
CCCACTAG	-0.0356
TATGTACA	-0.126
GTCAAAAC	-0.167
GATAGTAA	-0.197
AGGCCCGC	-0.211
AAAGCCAC	0.0178
AAAACGTC	0.0144
CACATCGC	-0.0721
AGGGGCCA	0.011
CGATGGCC	-0.152
CTCGACTA	-0.0388
AGTAATAG	0.188
TCAGATGA	0.0861
GTAGGTGA	-0.217
CGTAAGCC	-0.0549

Sequence	PBM E-score
AAGCGACG	-0.101
AACTCAAA	0.0151
ATCTGTAG	-0.238
TACACGGA	0.0181
GCCACAGC	-0.196
GCAGTACC	-0.0855
CAGGGCAC	0.12
ATGGGGAG	0.081
GGTTTCGA	-0.0289
AGATTGTA	-0.193
AAAAAGCC	-0.0972
TATCTAAA	0.0155
TGACGAAA	0.0592
CTGTACAA	0.0328
TACGGAGA	-0.0406
GATCGCGA	0.133
TAACGCGA	-0.0611
GCGCTCTA	0.0028
CCGGTAAG	-0.072
AAAACCTA	0.0603
CGCCGCCA	0.181
CCGTACCC	-0.133
ACCTCTAT	0.205
ACTGACTA	-0.234
AAGCCGAA	0.185

Sequence	PBM E-score
GTTTAATA	-0.0345
TCCGGACA	-0.105
TACCTATA	0.131
AATCCAAG	0.0564
AAGTAAAA	0.0303
AAGTGTCA	-0.148
GCACACAA	-0.212
GCCACTAA	0.366
ACTCGGCA	-0.0171
GCTCGTAA	0.058
AACGCTGC	0.0719
ATGATACC	-0.142
ACAAAAGC	-0.0567
GTGCTCCA	-0.136
CAAATGTG	0.0323
AGGGAGAT	-0.297
AAGTGAAC	-0.0708
CTGACAGA	-0.0772
CGGAGACC	0.0935
GTACCTTA	0.0846
CAATGCAA	-0.169
GCCTAACA	-0.0744
ATTGGAAA	0.0513
AGTAAAAT	0.136
TATCAATA	0.107

Sequence	PBM E-score
AACCACAC	0.0626
CGGGCTCA	-0.0916
AAGCATCC	0.404
TCACGGAA	-0.0669
AGCCGCCA	0.208
CTATTAAG	-0.0237
CGTCAGAG	-0.107
GCCGTAGC	-0.0796
AGGCGATA	-0.0956
GACGACAA	0.00369
AAACGCTA	-0.0548
GTGTTACA	-0.0977
CAATACAC	-0.1
ACCCGAGA	0.0779
CGGTGAGA	-0.101
AGACCCGG	-0.0493
ACTGTGCT	-0.231
CCTACAAA	0.127
GCACCACC	-0.0802
ATGTCCCG	-0.183
CACTGGCG	0.126
GGGCCTAC	-0.25
CCGGTTGC	0.317
AATGGCGA	-0.106
ACACCGTG	-0.197

Sequence	PBM E-score
ACATTAGA	-0.104
CCTAATAG	0.15
CGTTGCAG	-0.178
GGTGTGAA	-0.0292
CCTTTGCC	-0.218
AATTCGTA	0.221
GAGAGCGA	-0.249
CACACATG	-0.123
GTGCTTTA	0.0235
CAAGATGG	0.0397
CCACTGCA	0.0682
GGTTTTAA	0.0767
AACATGCA	-0.106
AGACCCTG	-0.105
TAATCGAA	0.0134
CCTAGCTC	-0.0989
CCAACCCG	-0.196
GGCTTGAA	-0.2
GCCTTCAC	-0.0793
